Experimental data as given in PubChem BioAssay AID720708 (National Center for Advancing Translational Sciences (NCATS), 2013).
The whole screen tested about 360,000 compounds, of which about 660 (0.18%) were called active. Inconclusive means that the source gave no clear call. Such entries were picked first, then a sample of the others. The call rests on the fitted dose curve; in most records, active means well fitted inhibition curve with a large enough effect; inconclusive means small, poorly fitted or top-dose-only effect; inactive means no such curve, though single readings can be large or run the other way. No potency is given beside an inconclusive call; the fits are too rough.

molecular target: Rap guanine nucleotide exchange factor 4 (Homo sapiens) (UniProt Q8WZA2); experiment: qHTS for Antagonist of cAMP-regulated guanine nucleotide exchange factor 2 (EPAC2): primary screen; conditions: EPAC2 GEF exchange of Rap1B-BODIPY-GDP, fluorescence; activity, negative = inhibition: at 114 µM (top of the series) unless noted; further: nearly all actives have a fitted effect of over 45% in size
Chain of UniProt Q8WZA2 (Q8WZA2 whole entry, looked up): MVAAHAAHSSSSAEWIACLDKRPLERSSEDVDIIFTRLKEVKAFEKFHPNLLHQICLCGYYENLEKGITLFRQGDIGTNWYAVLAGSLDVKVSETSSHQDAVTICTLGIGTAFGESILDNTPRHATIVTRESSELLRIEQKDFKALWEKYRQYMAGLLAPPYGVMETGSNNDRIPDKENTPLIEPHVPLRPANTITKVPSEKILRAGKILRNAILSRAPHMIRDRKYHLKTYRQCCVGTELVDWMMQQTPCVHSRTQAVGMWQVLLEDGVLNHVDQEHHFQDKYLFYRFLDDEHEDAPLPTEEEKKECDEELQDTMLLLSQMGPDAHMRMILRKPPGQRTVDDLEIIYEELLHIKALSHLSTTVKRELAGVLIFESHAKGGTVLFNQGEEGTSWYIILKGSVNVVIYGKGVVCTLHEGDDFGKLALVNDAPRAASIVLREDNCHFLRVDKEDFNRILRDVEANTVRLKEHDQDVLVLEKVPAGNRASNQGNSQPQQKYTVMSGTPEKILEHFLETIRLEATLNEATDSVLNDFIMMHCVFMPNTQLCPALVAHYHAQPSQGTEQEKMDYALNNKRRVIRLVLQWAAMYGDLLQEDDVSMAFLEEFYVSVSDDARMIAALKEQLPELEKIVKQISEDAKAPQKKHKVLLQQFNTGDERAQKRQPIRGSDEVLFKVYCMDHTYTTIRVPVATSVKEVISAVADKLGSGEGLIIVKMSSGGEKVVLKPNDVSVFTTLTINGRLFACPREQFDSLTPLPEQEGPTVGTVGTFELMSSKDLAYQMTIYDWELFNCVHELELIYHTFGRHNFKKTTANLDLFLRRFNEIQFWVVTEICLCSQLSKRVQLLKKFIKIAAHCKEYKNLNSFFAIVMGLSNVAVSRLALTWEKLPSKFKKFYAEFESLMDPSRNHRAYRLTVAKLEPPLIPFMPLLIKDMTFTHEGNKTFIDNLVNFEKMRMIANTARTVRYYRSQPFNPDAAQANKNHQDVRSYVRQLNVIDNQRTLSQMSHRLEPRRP
On the % scale 0 is the no-effect control and ±100 the full control effect; potency means the concentration at half of the fitted maximal effect; tags describe the fitted curve by direction and shape.

Row | Structure (SMILES) | Potency | activity, negative = inhibition
1 | Cc1ccc(N2C(=O)CS(=O)C(c3ccccc3)C2=O)cc1C (stereo unspecified) | inconclusive [inhibitor, partial curve] | –
2 | CCN(CC)CC#CCOC(c1ccccc1)c1ccccc1 | inconclusive [inhibitor, partial curve] | –
3 | CCOc1ccc(CNC(=O)C2Cc3cc(S(=O)(=O)N4CCCC4)ccc3N2C(C)=O)cc1 (stereo unspecified) | inconclusive [inhibitor, single point] | –
4 | C#CCOCCOCCOCCNc1nc(N2CCN(C(=O)CCCCCCCCCCNC(=O)[C@H](CCCCN)n3cc(CCCC(=O)O)nn3)CC2)nc(N2CCN(C(=O)CCCCCCCCCCNC(=O)[C@H](CCCN=C(N)N)n3cc(C[C@@H](C)CC)nn3)CC2)n1 | inconclusive [inhibitor, partial curve] | –
5 | COc1ccc(-c2cnc(N)nc2-c2ccc(OC)cc2)cc1 | inconclusive [inhibitor, partial curve] | –
6 | CCOC(=O)C1CCCN(c2oc(-c3ccc(F)cc3)nc2C#N)C1 (stereo unspecified) | inconclusive [inhibitor, partial curve] | –
7 | CC(CCc1ccccc1)NCC(O)COc1ccccc1 (stereo unspecified) | – | inactive: 3.19%
8 | Nc1ncnc2c1nc(Sc1ccc(Cl)cc1)n2[C@@H]1O[C@@H]2COP(=O)(O)O[C@H]2[C@H]1O | active: 2.82 µM | –
9 | Cc1ccccc1OCc1nc2ccccc2n1C | inconclusive [inhibitor, partial curve] | –
10 | COCCn1c(SCC(=O)Nc2nnc(C)s2)nnc1-c1cc2ccccc2cc1O | – | inactive: -4.62%
11 | CC(C)=CCC[C@H](C)C[C@@H]1CC2=C(C(=O)OC(C)(C)O2)[C@H](c2ccc(F)cc2)O1 | inconclusive [inhibitor, partial curve] | –
12 | Cc1ccc2oc(Nc3nc(-c4ccccc4)cc(=O)[nH]3)nc2c1 | – | inactive: 1.55%
13 | CCCn1nc(NS(=O)(=O)c2ccccc2[N+](=O)[O-])c2cc3ccccc3nc21 | inconclusive [inhibitor, partial curve] | –
14 | CCOC(=O)c1ccc(N2Cc3ccccc3C2=NC(=O)c2cccc([N+](=O)[O-])c2)cc1 | – | inactive: -7.72%
15 | C=CCN(c1nc(C)cc(OC)n1)S(=O)(=O)c1ccc(C)cc1 | inconclusive [inhibitor, partial curve] | –
16 | COc1ccccc1Cn1c(C)c(C(=O)NCc2ccc(C#N)cc2)sc1=O | inconclusive [inhibitor, partial curve] | –
17 | CCN1CCN(c2ccc(S(=O)(=O)N3CCCCC3)cc2NC(=O)/C=C/c2ccc(OC(F)F)cc2)CC1 | – | inactive: -9.66%
18 | Cc1ccc(CNC(=O)C2CCN(C(=O)Nc3ccc(C)cc3)CC2)cc1 | inconclusive [inhibitor, single point] | –
19 | COC(=O)C1=CN(Cc2ccc(OC)cc2)C=C(C(=O)OC)C1c1cc(OC)c(OC)c(OC)c1 | inconclusive [inhibitor, partial curve] | –
20 | COC(=O)C[C@H]1CC[C@H](NC(=O)c2ccc(F)cc2)[C@@H](CO)O1 | – | inactive: 0.891%
21 | COc1ccccc1NC(=O)N(CCN(C)C)Cc1cc2cc(C)ccc2[nH]c1=O | inconclusive [inhibitor, partial curve] | –

Row | Structure (SMILES) | Potency | activity, negative = inhibition
22 | O=C(Nc1cccc(Cl)c1)c1cc(N=Nc2ccc([N+](=O)[O-])cc2Cl)ccc1O | inconclusive [inhibitor, partial curve] | –
23 | COc1cc(/C=C2/SC(=S)N(c3c(C)n(C)n(-c4ccccc4)c3=O)C2=O)ccc1O | inconclusive [inhibitor, partial curve] | –
24 | Cn1c(N)c(C(=O)CSc2nnnn2-c2ccccc2)c(=O)n(C)c1=O | inconclusive [inhibitor, single point] | –
25 | Cc1nc(S/C(=C/c2ccc(-c3cc(Cl)ccc3C)o2)C(=O)O)n[nH]1 | inconclusive [inhibitor, partial curve, poor fit] | –
26 | O=C(C(=O)N(C1CCCCC1)C1CCCCC1)c1ccccc1 | inconclusive [inhibitor, single point] | –
27 | Cc1cc(C)nc(CCNC(=O)c2cc(COc3ccccc3)on2)n1 | – | inactive: 2.69%
28 | N#CC1=C(N)c2ccccc2CC12CCCCC2 | inconclusive [inhibitor, single point] | –
29 | COc1ccc(C2CC(c3ccccc3)=NN2S(=O)(=O)c2ccccc2)cc1 (stereo unspecified) | inconclusive [inhibitor, single point] | –
30 | O=C(CC(c1ccccc1)c1cc(Cl)ccc1O)N1CCCC1 (stereo unspecified) | inconclusive [inhibitor, partial curve] | –
31 | CCc1cc2c(CN(C)Cc3ccccc3F)cc(=O)oc2cc1O | inconclusive [inhibitor, partial curve] | –
32 | CCc1nc2ccc(C(=O)NCc3ccc(OC)cc3)cn2c1N(C)CCC(C)C | inconclusive [inhibitor, full curve] | –
33 | Cc1ccc2c(c1)C(c1ccccc1)CC(=O)O2 (stereo unspecified) | inconclusive [inhibitor, partial curve] | –
34 | CC(=O)N1CCN(Cc2cc(=O)oc3ccc4ccccc4c23)CC1 | inconclusive [inhibitor, single point] | –
35 | Fc1cccc(Cc2c(-c3ccco3)nc3c4ccccc4ccn23)c1 | – | inactive: -8.72%
36 | O=C(CSc1nnnn1-c1ccccc1)Nc1ccc(Cl)cn1 | inconclusive [inhibitor, single point] | –
37 | COc1ccc(S(=O)(=O)Nc2c(C)cc(C)cc2C)c2cccnc12 | inconclusive [inhibitor, partial curve] | –
38 | O=C(Cc1ccccc1)NC(c1ccco1)c1c(O)ccc2ccccc12 (stereo unspecified) | inconclusive [inhibitor, partial curve] | –
39 | O=C(Nc1ccc2oc(-c3cccnc3)nc2c1)c1ccc2c(c1)OCCO2 | inconclusive [inhibitor, single point] | –
40 | COc1ccc2cc(CCC(C)=O)ccc2c1 | active: 28.2 µM | –
41 | COc1ccc(-c2sc3ccccc3c2-c2cc(OC)ccc2C=O)cc1 | inconclusive [inhibitor, full curve] | –
